Drawing on the supplement of paper PMC9446081, this text covers relative growth for 38 molecules.

Out of some 39,000 compounds screened, about 220 (0.56%) showed activity. The list shows a part of the results.
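Note: static incubation at 37 °C against the wild-type strain, values averaged over two biological replicates.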

The experiment relates to Escherichia coli K-12 BW25113. The experiment can be described thus: relative growth (OD600 normalised to plate interquartile mean) (fraction); higher = less growth inhibition, active = 0.2 or less. The note with it: 50 µM; LB; incubation time: overnight (16-24 h).
Consider `O=C(C[C@@H]1C[C@H]2c3cc(NS(=O)(=O)c4ccc(F)cc4)ccc3O[C@H]2[C@@H](CO)O1)N1CCCCC1`, for which the relative growth is inactive: 1.02.

As to `Cc1noc(C)c1S(=O)(=O)Nc1ccc2c(c1)C(=O)N([C@@H](C)CO)C[C@H](C)[C@@H](CN(C)Cc1ccc(C(=O)O)cc1)O2`, the relative growth was inactive: 1.

In the case of `C[C@H](CO)N1C[C@H](C)[C@H](CN(C)Cc2ccc(Cl)c(Cl)c2)OCc2ccccc2-c2c(n(C)c3ccccc23)C1=O`, the relative growth was inactive: 1.01.

With `C[C@H](CO)N1C[C@H](C)[C@H](CN(C)Cc2ccccc2C(F)(F)F)OCc2ccccc2-c2ccccc2C1=O`, the relative growth is inactive: 0.974.

`C[C@@H]1CN([C@@H](C)CO)C(=O)c2cccc(NC(=O)c3nc4ccccc4s3)c2O[C@H]1CN(C)CC1CCCCC1`: the relative growth is inactive: 0.912.

Turning to `COc1ccccc1NC(=O)Nc1ccc2c(c1)C(=O)N(C)C[C@@H](OC)[C@H](C)CN(Cc1ccccc1Cl)[C@H](C)CO2`, the relative growth was inactive: 1.04.

As to `C[C@@H]1CN([C@H](C)CO)C(=O)c2cc(NC(=O)C3CCCCC3)ccc2O[C@@H](C)CCCCO[C@H]1CN(C)S(=O)(=O)c1cccs1`, the relative growth is inactive: 0.977.

For `C[C@H]1CN([C@@H](C)CO)C(=O)c2cc(C#Cc3ccc(F)cc3)cnc2O[C@H]1CN(C)CC1CCOCC1`, the relative growth was inactive: 1.01.

Turning to `C[C@@H]1CN([C@H](C)CO)C(=O)c2cc(NC(=O)CCCN(C)C)ccc2O[C@@H]1CN(C)S(=O)(=O)c1ccc(Cl)cc1`, the relative growth was inactive: 1.01.

On to `NC(=O)c1ccc(CN2CCOCC2)cc1`, for which the relative growth is inactive: 0.992.

As for `C[C@@H]1CCCCO[C@H](CN(C)CC2CC2)[C@@H](C)CN([C@H](C)CO)C(=O)c2cc(NS(=O)(=O)c3cn(C)cn3)ccc2O1`, the relative growth was inactive: 1.02.

Take `C[C@H]1CN([C@@H](C)CO)C(=O)c2cc(Br)cnc2O[C@H]1CN(C)C(=O)Nc1ccc(F)cc1`: the relative growth is inactive: 1.01.

Consider `OCC1(O)OCC(O)C(O)C1O` (stereo not drawn), for which the relative growth is inactive: 1.16.

Regarding `C[C@H]1CN([C@@H](C)CO)C(=O)c2cc(C#Cc3ccccc3F)cnc2O[C@@H]1CN(C)C(=O)c1ccc2c(c1)OCO2`, the relative growth is inactive: 1.02.

Regarding `C[C@@H]1CN([C@H](C)CO)C(=O)c2cc(-c3ccc(C(=O)N(C)C)cc3)cnc2O[C@H]1CN(C)C(=O)C1CC1`, the relative growth is inactive: 1.03.

In the case of `C[C@@H]1CN([C@@H](C)CO)C(=O)c2cccc(NS(=O)(=O)c3cccs3)c2O[C@@H]1CN(C)Cc1ccc(-c2ccccc2)cc1`, the relative growth was inactive: 1.03.

Turning to `CCS(=O)(=O)Nc1ccc2c(c1)C(=O)N(C)C[C@H](OC)[C@H](C)CN(Cc1ccccn1)[C@@H](C)CO2`, the relative growth is inactive: 1.02.

As to `CC(C)(O)C#Cc1cccc(-c2nc(C(=O)Nc3ccc(-c4ccccc4)cc3)cc3c2[C@@H](CCO)N(S(=O)C(C)(C)C)C3)c1` (stereo partly drawn), the relative growth is inactive: 0.997.

Take `NCc1ccc(-c2ccc(Br)cc2)cc1`: the relative growth is inactive: 0.968.

In the case of `C[C@@H]1CN([C@H](C)CO)C(=O)c2cc(NS(C)(=O)=O)ccc2O[C@H]1CN(C)S(=O)(=O)c1ccccc1`, the relative growth is inactive: 1.01.

With `C[C@@H]1CN([C@@H](C)CO)C(=O)Cc2cc(NC(=O)CCN3CCOCC3)ccc2O[C@H]1CN(C)C(=O)Nc1ccc(F)cc1`, the relative growth is inactive: 1.01.

`COc1ccc(S(=O)(=O)Nc2cccc3c2O[C@@H](CN(C)S(=O)(=O)c2cn(C)cn2)[C@@H](C)CN([C@@H](C)CO)C3=O)cc1`: the relative growth is inactive: 1.01.

Take `CN1C[C@H](O)COC[C@H]2O[C@H](CC(=O)N3CCN(c4ccccc4)CC3)CC[C@@H]21`: the relative growth was inactive: 0.98.

As to `Cc1ccc(S(=O)(=O)N(C)C[C@@H]2Oc3c(NC(=O)NC(C)C)cccc3C(=O)N([C@H](C)CO)C[C@H]2C)cc1`, the relative growth is inactive: 0.995.

On to `C[C@@H]1CN([C@H](C)CO)C(=O)Cc2cc(NS(=O)(=O)c3cccs3)ccc2O[C@@H]1CN(C)Cc1ccc(Cl)c(Cl)c1`, for which the relative growth is inactive: 1.01.

For `C[C@H]1CCCCO[C@H](CN(C)Cc2ccc(C(F)(F)F)cc2)[C@@H](C)CN([C@@H](C)CO)C(=O)c2cc(NC(=O)Nc3ccc4c(c3)OCO4)ccc2O1`, the relative growth is inactive: 1.03.

Take `Cc1ccc(S(=O)(=O)Nc2ccc3c(c2)C(=O)N([C@@H](C)CO)C[C@@H](C)[C@H](CN(C)C(=O)Cc2ccccc2)OCCCC[C@H](C)O3)cc1`: the relative growth was inactive: 0.981.

As for `C[C@@H]1CN([C@H](C)CO)C(=O)c2cc(NC(=O)CCN3CCOCC3)ccc2O[C@@H]1CN(C)Cc1ccccc1`, the relative growth was inactive: 1.02.

With `C[C@H]1CN([C@@H](C)CO)C(=O)c2c(c3ccccc3n2C)-c2ccccc2CO[C@@H]1CN(C)Cc1ccccc1`, the relative growth was inactive: 0.976.

Consider `C[C@@H]1CCCCO[C@@H](CN(C)S(C)(=O)=O)[C@H](C)CN([C@@H](C)CO)C(=O)c2cc(NS(=O)(=O)c3ccccc3)ccc2O1`, for which the relative growth is inactive: 1.02.

Consider `COc1cccc(C#Cc2ccc([C@H]3[C@@H](CO)N4C(=O)CN(S(=O)(=O)c5ccccc5C)C[C@@H]34)cc2)c1`, for which the relative growth was inactive: 1.04.

In the case of `O=C(NCCCN1CCOCC1)[C@H]1[C@H](CO)[C@H]2Cn3c(ccc(C4=CCCCC4)c3=O)[C@@H]1N2`, the relative growth was inactive: 0.995.

Turning to `C[C@H](CO)N1C[C@H](C)[C@H](CN(C)C(=O)Nc2ccc(C(F)(F)F)cc2)Oc2ccc(NS(=O)(=O)c3ccc(Cl)cc3)cc2CC1=O`, the relative growth was inactive: 0.931.

Turning to `CC(N)O.Cc1cc(CC(C)CC(C)(C)C)n(O)c(=O)c1` (stereo not drawn), the relative growth was active: 0.0449.

On to `C[C@H]1CN([C@@H](C)CO)C(=O)c2c(c3ccccc3n2C)-c2ccccc2CO[C@H]1CN(C)Cc1ccc(C(=O)O)cc1`, for which the relative growth was inactive: 1.01.

`C[C@@H]1CN([C@@H](C)CO)C(=O)c2cccc(NC(=O)c3ccc(-c4nccs4)cc3)c2O[C@H]1CN(C)S(=O)(=O)c1ccc(Cl)cc1`: the relative growth was inactive: 0.973.

Consider `CN(C)CCCC[C@@H]1NC(=O)[C@@H]2C[C@H](C(=O)NCCCCCCNC(=O)CS)[C@H](c3cccc(OCCO)c3)N2C1=O`, for which the relative growth is inactive: 1.02.

Consider `CCC1OC(=O)C(C)C(OC2CC(C)(OC)C(O)C(C)O2)C(C)C(OC2OC(C)CC(N(C)C)C2O)C(C)(O)CC(C)C(=O)C(C)C(O)C1(C)O.CCCCCCCCCCCCCCCCCC(=O)O` (stereo not drawn), for which the relative growth was inactive: 0.665.
